# Test results as given in publication doi:10.1101/2024.10.14.618187, “Molecular basis of interchain disulfide-bond formation in BMP-9 and BMP-10” (bioRxiv, 2024).
# T1: BMP-9 monomer (cysteinylated BMP-9 growth factor) (human, UniProt Q9UK05 320-429, A321S, Cys-392 cysteinylated (a cysteine attached by a disulfide, +119 Da))
# T1 construct: human BMP-9 growth factor domain released by factor Xa from Pro-(X)-BMP-9 (proBMP9 residues 23-429, A321S, furin site RRKR replaced by IEGR); numbers count on the precursor; The His tag sits on the prodomain and goes with it after the factor Xa digest; One of PDB 9DPM-9DPY holds this molecule; source: expi293 (suspension HEK293), secreted as Pro-(X)-BMP-9; nickel column, factor Xa digest, C18 …
# T1 sequence (looked up): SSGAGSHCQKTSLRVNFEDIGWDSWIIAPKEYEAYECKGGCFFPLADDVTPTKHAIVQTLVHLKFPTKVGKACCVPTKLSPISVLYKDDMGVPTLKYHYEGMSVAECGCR
# B1: ActRIIa extracellular domain (human activin receptor type-2A […]) (receptor)
# chain: not shown
# modifications: deglycosylated with PNGAseF
# notes: human activin receptor type-2A, […]; The purification as told names no thrombin step; the expected mass of the complex (24.4 kDa) hints that the tag was off, but this is a surmise; source: expi293 (suspension HEK293), secreted; nickel column, PNGase F, size exclusion chromatography
# Target: T1, BMP-9 monomer (cysteinylated BMP-9 …)
# Experiment: SEC-MALS; BMP-9 monomer at 6.58 μM injected with excess ActRIIa (1:1.6); Superdex 75 Increase 10/300 GL; 150 mM NaCl, 100 mM tris pH 7.5
# Conditions: both partners purified
binder,measurement,value
B1,binding result,binds
